Measured values taken from the antibiotic and cytotoxicity screens of Wong et al. (2023).
The other results are listed elsewhere or left out.

test system: S. aureus RN4220; experiment: growth inhibition call (relative growth <= 0.2); conditions: 50 µM

Growth inhibition call, inactive:
OCc1ccc(O[C@@H]2O[C@H](CO)[C@@H](O)[C@H](O)[C@H]2O)cc1
C[C@H](CO)N1C[C@H](C)[C@@H](CN(C)C(=O)c2cnccn2)Oc2ncc(/C=C/c3ccccc3)cc2C1=O
NCc1cccc2nsnc12
COc1ccc(CNC(=O)C[C@H]2CC[C@H]3[C@@H](COc4ccc(NC(=O)C5CC5)cc4C(=O)N3C)O2)cc1
O=C(C[C@@H]1CC[C@H](NC(=O)CN2CCOCC2)[C@H](CO)O1)NCCc1ccncc1
COCC(=O)Nc1ccc2c(c1)OC[C@@H](C)N(Cc1ccccc1F)C[C@@H](C)[C@H](OC)CN(C)C2=O
C[C@@H]1CCCCO[C@@H](CN(C)C(=O)NC2CCCCC2)[C@H](C)CN([C@H](C)CO)C(=O)c2cc(NC(=O)NC3CCCCC3)ccc2O1
C[C@@H]1CN([C@H](C)CO)C(=O)c2c(c3ccccc3n2C)-c2ccccc2CO[C@@H]1CN(C)Cc1ccc(Oc2ccccc2)cc1
C[C@H](CO)N1C[C@H](C)[C@@H](CN(C)S(=O)(=O)c2ccc(Cl)cc2)Oc2ccc(NS(C)(=O)=O)cc2C1=O
Cc1noc(C)c1S(=O)(=O)Nc1ccc2c(c1)C(=O)N([C@@H](C)CO)C[C@@H](C)[C@H](CN(C)C(=O)Nc1ccc(C(F)(F)F)cc1)OCCCC[C@H](C)O2
C=CCOC(=O)N(C)C[C@@H]1OCCCC[C@H](C)Oc2ccc(NC(=O)Nc3ccccc3)cc2C(=O)N([C@H](C)COC(=O)c2ccccc2)C[C@H]1C
C[C@@H]1CN([C@H](C)CO)C(=O)c2c(c3ccccc3n2C)-c2ccccc2CO[C@@H]1CN(C)CC1CCCCC1
COc1ccc(S(=O)(=O)Nc2ccc3c(c2)C(=O)N([C@H](C)CO)C[C@H](C)[C@@H](CN(C)CC2CCCCC2)OCCCC[C@@H](C)O3)cc1
Nc1ccn([C@@H]2C[C@@H](O)[C@H](CO)O2)c(=O)n1
C[C@@H]1CN([C@H](C)CO)C(=O)c2cccc(NS(=O)(=O)c3cccs3)c2O[C@@H]1CN(C)S(=O)(=O)c1cccs1
COc1ccc(-c2cnc3c(c2)C(=O)N([C@H](C)CO)C[C@H](C)[C@H](CN(C)S(=O)(=O)c2ccc(C#N)cc2)O3)cc1
CCOC(=O)CC1(C)NNC(=S)NN1
C[C@@H]1CN([C@@H](C)CO)C(=O)Cc2cc(NC(=O)CCCN(C)C)ccc2O[C@@H]1CN(C)S(=O)(=O)c1ccc(Cl)cc1
O=C(C1=C[C@@H](C2CC2)C[C@@H](OCc2ccc(CO)cc2)O1)N1CCN(Cc2ccc3c(c2)OCO3)CC1
COc1ccc(Br)cc1S(=O)(=O)NC(=O)/C=C/c1ccccc1Cc1ccc2ccccc2c1
C[C@H]1CN([C@@H](C)CO)C(=O)c2cc(C#CC3(O)CCCC3)cnc2O[C@@H]1CN(C)S(=O)(=O)c1ccc(F)cc1
CCCNC(=O)C[C@@H]1CC[C@@H]2[C@@H](COc3ccc(NC(=O)c4ccc5c(c4)OCO5)cc3C(=O)N2C)O1
C[C@@H]1CN([C@@H](C)CO)C(=O)c2cc(NC(=O)CCCN(C)C)ccc2O[C@H]1CN(C)Cc1ccncc1
CCCCOC(=O)c1ccc(O)cc1
C[C@@H]1CN([C@H](C)CO)C(=O)Cc2cc(NC(=O)C3CC3)ccc2O[C@H]1CN(C)C(=O)Nc1ccccc1
C[C@@H]1CN([C@H](C)CO)C(=O)Cc2cc(NC(=O)CCC(F)(F)F)ccc2O[C@H]1CN(C)Cc1ccc(Cl)c(Cl)c1
CCOC(=O)/C=C(C)/C=C/C=C(C)/C=C/c1c(C)cc(OC)c(C)c1C
C[C@@H]1CN([C@H](C)CO)C(=O)c2cc(NC(=O)c3ccccc3)ccc2O[C@@H](C)CCCCO[C@@H]1CN(C)Cc1ccc(C(F)(F)F)cc1
C[C@@H]1CCCCO[C@H](CN(C)Cc2ccc3c(c2)OCO3)[C@@H](C)CN([C@H](C)CO)C(=O)c2cc(NS(=O)(=O)c3ccc(Cl)cc3)ccc2O1
O=C(CN1CCNCC1)c1ccc(F)cc1
CCOC(=O)[C@H](Cc1c[nH]c2ccccc12)NC(=O)Cn1cc(C(=O)NO)nn1
CC1(C)C=Cc2cc3ccc(=O)oc3cc2O1
C[C@H](CO)N1C[C@H](C)[C@H](CN(C)S(=O)(=O)c2cn(C)cn2)Oc2ccc(NC(=O)CCCN(C)C)cc2CC1=O
COc1ccc2c3c(n(c2c1)C)[C@@H](CO)N(C[C@]13CN(C1)S(=O)(=O)c1ccc(cc1)C)S(=O)(=O)c1ccc(cc1)C
CN1CCN(C(=O)C[C@@H]2CC[C@H]3[C@@H](COC[C@H](O)CN3C(=O)C3CCOCC3)O2)CC1
Cc1noc(C)c1NC(=O)N[C@@H]1C=C[C@H](CC(=O)NCCCN(C)C)O[C@@H]1CO
C[C@@H]1CN([C@@H](C)CO)C(=O)c2cc(NS(=O)(=O)c3ccccc3)ccc2O[C@@H](C)CCCCO[C@@H]1CN(C)S(=O)(=O)c1ccc(Cl)cc1
CO[C@@H]1CN(C)C(=O)c2ccc(NS(C)(=O)=O)cc2OC[C@@H](C)N(C(=O)C2CCCCC2)C[C@H]1C
CN(C)CCC(c1ccccc1)c1ccccn1.O=C(O)C=CC(=O)O (stereo not given)
Cc1noc(C)c1NC(=O)Nc1ccc2c(c1)CC(=O)N([C@@H](C)CO)C[C@H](C)[C@H](CN(C)Cc1ccc(-c3ccccc3)cc1)O2
